Data: patent US20230416360A1

What was measured:
[1] = target: T1, murine CD22-ECD-His (mouse) (UniProt P35329); experiment: ELISA, coated mouse CD22, antibody 0.001 nM
T1 sequence (looked up): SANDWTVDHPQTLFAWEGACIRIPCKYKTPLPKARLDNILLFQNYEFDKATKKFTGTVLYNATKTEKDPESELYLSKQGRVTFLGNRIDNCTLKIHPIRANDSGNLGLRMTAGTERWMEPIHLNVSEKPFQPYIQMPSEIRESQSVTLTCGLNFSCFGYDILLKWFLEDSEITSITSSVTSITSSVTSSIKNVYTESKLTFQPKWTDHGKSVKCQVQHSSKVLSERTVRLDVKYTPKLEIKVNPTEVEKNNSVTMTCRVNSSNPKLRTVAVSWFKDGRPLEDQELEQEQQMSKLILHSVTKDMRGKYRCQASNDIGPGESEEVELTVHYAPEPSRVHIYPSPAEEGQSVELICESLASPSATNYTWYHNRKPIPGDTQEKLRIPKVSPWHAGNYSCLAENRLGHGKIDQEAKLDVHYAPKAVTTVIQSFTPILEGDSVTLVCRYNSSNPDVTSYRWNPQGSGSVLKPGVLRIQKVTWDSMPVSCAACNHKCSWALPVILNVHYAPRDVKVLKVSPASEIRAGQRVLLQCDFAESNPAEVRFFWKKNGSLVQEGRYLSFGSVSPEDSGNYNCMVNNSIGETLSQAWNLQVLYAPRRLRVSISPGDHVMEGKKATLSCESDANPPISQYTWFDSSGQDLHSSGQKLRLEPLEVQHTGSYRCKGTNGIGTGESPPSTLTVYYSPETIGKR

[2] = target: T1, murine CD22-ECD-His (mouse); experiment: ELISA, coated mouse CD22, antibody 0.10 nM
[3] = target: T1, murine CD22-ECD-His (mouse); experiment: ELISA, coated mouse CD22, antibody 0.00001 nM
[4] = target: T1, murine CD22-ECD-His (mouse); experiment: ELISA, coated mouse CD22, antibody 100 nM
[5] = target: T1, murine CD22-ECD-His (mouse); experiment: ELISA, coated mouse CD22, antibody 10 nM
[6] = target: T1, murine CD22-ECD-His (mouse); experiment: ELISA, coated mouse CD22, antibody 0.01 nM
[7] = target: T1, murine CD22-ECD-His (mouse); experiment: ELISA, coated mouse CD22, antibody 0.0001 nM

OD450 [1]: 0.06
OD450 [2]: 0.06
OD450 [3]: 0.06
OD450 [4]: 0.38
OD450 [5]: 0.11
OD450 [6]: 0.06
OD450 [7]: 0.06
B1: S002-NB151-13 VHH-Fc (Fc fusion)
chain: QVQLVESGGGLVQAGDSLRLSCAASTRIFRSYVMGWFRQAPGKEREAVASIRWSNDTGTYADSVKGRFTISRDNAKNTVYLQMNSLKPEDTAVYSCAADSPPWGRTWYTGYDYWGQGTQVTVSS[human IgG1 Fc with changes cut from this listing]
